{"source": "paper PMC4336329", "about": "(PLoS ONE, 2015)", "note": "About 14,000 (4.5%) of roughly 310,000 compounds showed an effect of 50% or more. The effect is printed as a negative number. The list shows a part of the results.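 Further: peak tail current of the secondary pulse compared with the same well before compound.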", "data": [{"target": "human ether-à-go-go-related gene (hERG) potassium channel (human, UniProt Q12809)", "sequence (Q12809 whole entry, looked up)": "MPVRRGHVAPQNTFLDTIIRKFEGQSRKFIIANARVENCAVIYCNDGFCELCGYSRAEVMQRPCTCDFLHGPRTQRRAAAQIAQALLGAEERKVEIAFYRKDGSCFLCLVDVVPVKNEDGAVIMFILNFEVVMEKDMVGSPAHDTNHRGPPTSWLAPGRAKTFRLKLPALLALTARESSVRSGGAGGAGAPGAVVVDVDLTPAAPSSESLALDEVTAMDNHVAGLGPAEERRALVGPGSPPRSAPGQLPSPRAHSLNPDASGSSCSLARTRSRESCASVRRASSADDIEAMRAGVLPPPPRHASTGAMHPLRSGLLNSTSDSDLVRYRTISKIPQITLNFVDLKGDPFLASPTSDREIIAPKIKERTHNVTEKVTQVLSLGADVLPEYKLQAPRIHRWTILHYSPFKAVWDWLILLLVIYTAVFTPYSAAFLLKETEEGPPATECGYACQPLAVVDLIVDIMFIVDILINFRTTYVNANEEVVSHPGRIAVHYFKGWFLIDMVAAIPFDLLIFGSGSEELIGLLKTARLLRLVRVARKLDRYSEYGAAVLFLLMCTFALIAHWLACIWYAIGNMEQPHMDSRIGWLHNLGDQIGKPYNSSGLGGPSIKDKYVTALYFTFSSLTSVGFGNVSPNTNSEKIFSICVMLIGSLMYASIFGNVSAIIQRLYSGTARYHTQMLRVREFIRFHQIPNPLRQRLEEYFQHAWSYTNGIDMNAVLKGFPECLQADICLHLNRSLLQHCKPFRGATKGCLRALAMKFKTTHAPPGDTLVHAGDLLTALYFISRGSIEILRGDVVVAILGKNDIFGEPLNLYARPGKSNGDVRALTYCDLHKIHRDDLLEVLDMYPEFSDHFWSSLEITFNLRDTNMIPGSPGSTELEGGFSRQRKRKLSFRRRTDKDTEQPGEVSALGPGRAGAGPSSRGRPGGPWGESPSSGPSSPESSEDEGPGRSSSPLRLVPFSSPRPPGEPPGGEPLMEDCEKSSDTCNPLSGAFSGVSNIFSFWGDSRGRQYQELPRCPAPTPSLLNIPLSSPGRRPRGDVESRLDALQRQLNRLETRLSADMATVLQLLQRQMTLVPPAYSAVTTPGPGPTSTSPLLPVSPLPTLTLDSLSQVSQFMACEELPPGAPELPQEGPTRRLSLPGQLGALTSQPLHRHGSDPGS", "experiment": "primary screen, population patch clamp on CHO cells stably expressing hERG", "units": {"hERG current change (%, negative = inhibition) at 10uM": "%"}, "values": [{"smiles": "CN(C)c1ccc(/C=N/n2c(C3CCCCC3)n[nH]c2=S)cc1", "hERG current change (%, negative = inhibition) at 10uM": 20}, {"smiles": "Cc1ccc(NC(=O)CN(C)C(=O)Nc2ccc(C)cc2)cc1", "hERG current change (%, negative = inhibition) at 10uM": 15.5}, {"smiles": "CC(=O)/C(CN1CCCCC1)=N\\O.Cl", "hERG current change (%, negative = inhibition) at 10uM": 8.71}, {"smiles": "CC(C)CN(CC(C)C)C(=O)Nc1ccccc1F", "hERG current change (%, negative = inhibition) at 10uM": 0.473}, {"smiles": "Cc1cccc(-c2c3c(=O)n(C)c(=O)n(C)c3cn2CCO)c1", "hERG current change (%, negative = inhibition) at 10uM": 4.56}, {"smiles": "COc1ccccc1CNC(=O)c1ccccc1C(=O)NC(CC(C)C)C(=O)NCc1ccccc1OC", "note": "(stereo not drawn)", "hERG current change (%, negative = inhibition) at 10uM": 10.6}, {"smiles": "COc1ccccc1CCn1cnc2c3cc(C)ccc3n(C)c2c1=O", "hERG current change (%, negative = inhibition) at 10uM": -2.79}, {"smiles": "CCCSc1nnc(-c2ccccc2NC(=O)CC)c(=O)[nH]1", "hERG current change (%, negative = inhibition) at 10uM": 6.99}, {"smiles": "O=C(CN1CCN(Cc2ccccc2)CC1)NNC(=O)c1ccccc1", "hERG current change (%, negative = inhibition) at 10uM": -13.5}, {"smiles": "O=C(CCN1C(=O)/C(=C/c2ccccc2Cl)SC1=S)NC1C=CS(=O)(=O)C1", "note": "(stereo not drawn)", "hERG current change (%, negative = inhibition) at 10uM": 12.9}, {"smiles": "COc1ccc(NC(=S)N(CCCN2CCCC2)Cc2cccs2)cc1", "hERG current change (%, negative = inhibition) at 10uM": -48}, {"smiles": "O=C(COC(=O)CC1CC2CCC1C2)Nc1cccc(S(=O)(=O)NC2=NCCCCC2)c1", "note": "(stereo not drawn)", "hERG current change (%, negative = inhibition) at 10uM": -20.5}, {"smiles": "C/C(=N\\NC(=O)CNc1cccc2ccccc12)c1ccccc1", "hERG current change (%, negative = inhibition) at 10uM": 10.2}, {"smiles": "Cl.O=S(=O)(c1ccc2nc(COc3ccccc3)[nH]c2c1)N1CCOCC1", "hERG current change (%, negative = inhibition) at 10uM": -11.5}, {"smiles": "COc1cccc(C(=O)NCCn2ccc3ccccc32)c1", "hERG current change (%, negative = inhibition) at 10uM": 6.37}, {"smiles": "CCOc1cc(/C=N/NC(=O)c2ccncc2)cc(Cl)c1OS(C)(=O)=O", "hERG current change (%, negative = inhibition) at 10uM": -16.6}, {"smiles": "Cn1cc(/C=N/n2cnc3scc(-c4ccccc4)c3c2=O)c2ccccc21", "hERG current change (%, negative = inhibition) at 10uM": 4.68}, {"smiles": "COc1ccc2c(C)nc(Nc3nc(C)cc(C)n3)nc2c1", "hERG current change (%, negative = inhibition) at 10uM": 5.64}, {"smiles": "CC1=CC(=C2C(=O)NC(=O)NC2=O)C=C(C(F)(F)F)N1C(C)C", "hERG current change (%, negative = inhibition) at 10uM": -20.2}, {"smiles": "Cc1ccc(S(=O)(=O)CCC(=O)NCCc2ccc(Cl)cc2)cc1", "hERG current change (%, negative = inhibition) at 10uM": -6.35}, {"smiles": "CCn1c(=O)c2ccccc2n(Cc2cccc([N+](=O)[O-])c2)c1=O", "hERG current change (%, negative = inhibition) at 10uM": 15.3}, {"smiles": "CCOC(=O)C1=C(C)NC(=O)NC1c1ccc2c(c1)OCCO2", "note": "(stereo not drawn)", "hERG current change (%, negative = inhibition) at 10uM": 10.1}, {"smiles": "O=C(NC1(C(F)(F)F)N=C(c2ccccc2)NC1=O)c1ccc(Cl)cc1Cl", "note": "(stereo not drawn)", "hERG current change (%, negative = inhibition) at 10uM": -5.66}, {"smiles": "CCNC(=O)Cn1cc(C#N)c2ccccc21", "hERG current change (%, negative = inhibition) at 10uM": 1.8}, {"smiles": "COc1ccc(-n2nnc3c(=O)n(Cc4cccc(C)c4)cnc32)cc1", "hERG current change (%, negative = inhibition) at 10uM": -8.52}, {"smiles": "CCOC(=O)c1cc2c(nc1NC(=S)Nc1ccccc1)CC(C)(C)OC2", "hERG current change (%, negative = inhibition) at 10uM": 4.96}, {"smiles": "COc1cccc(CN(C(=O)CN2C(=O)c3ccccc3S2(=O)=O)C(C(=O)NCC2CCCO2)c2ccco2)c1", "note": "(stereo not drawn)", "hERG current change (%, negative = inhibition) at 10uM": -38.1}, {"smiles": "Cc1nn2c(N3CCN(CCO)CC3)c3c(nc2c1-c1ccccc1)CCCC3", "hERG current change (%, negative = inhibition) at 10uM": 0.0317}, {"smiles": "COc1cnn(-c2ccc(C)cc2)c(=O)c1Br", "hERG current change (%, negative = inhibition) at 10uM": 11.7}, {"smiles": "Cc1nn(CCO)c2c1C(=O)CCC2", "hERG current change (%, negative = inhibition) at 10uM": 16.3}, {"smiles": "O=C(Cn1cc2c(n1)CCCC2)NCCCN1CCCC1", "hERG current change (%, negative = inhibition) at 10uM": 7.79}, {"smiles": "O=C1N(Cc2cccnc2)C[C@@H]2C[C@@H](c3cccc(Oc4ccccc4)c3)N3CCC[C@@]123", "hERG current change (%, negative = inhibition) at 10uM": -59.4}, {"smiles": "Cc1cc(C)n2nc(SCC#N)nc2n1", "hERG current change (%, negative = inhibition) at 10uM": -7.25}, {"smiles": "CC(NC(=O)c1ccc(N)cc1)c1ccccc1", "note": "(stereo not drawn)", "hERG current change (%, negative = inhibition) at 10uM": 22.2}, {"smiles": "COc1cccc(/C=N/NC(=O)CCc2c(C)n[nH]c2C)c1O", "hERG current change (%, negative = inhibition) at 10uM": -2.97}, {"smiles": "COc1cccc(NC(=O)/C=C/c2ccc(S(=O)(=O)N3CCOCC3)cc2)c1", "hERG current change (%, negative = inhibition) at 10uM": -17.6}, {"smiles": "O=C(CN(C(=O)CNS(=O)(=O)c1ccccc1)c1ccc2c(c1)OCCO2)NCc1ccco1", "hERG current change (%, negative = inhibition) at 10uM": -6.53}, {"smiles": "O=C(COC(=O)/C=C/c1ccc(Br)o1)NC1CCCCC1", "hERG current change (%, negative = inhibition) at 10uM": 11}, {"smiles": "Cc1cccc(OCC(=O)N/N=C/c2cc([N+](=O)[O-])ccc2N2CCOCC2)c1", "hERG current change (%, negative = inhibition) at 10uM": -9.73}, {"smiles": "CC(=O)c1cccc(NC(=O)CCc2nnc3ccc(NCc4ccco4)nn23)c1", "hERG current change (%, negative = inhibition) at 10uM": 18.1}, {"smiles": "O=C(CSCc1ccc(Cl)cc1)NCCSCc1ccco1", "hERG current change (%, negative = inhibition) at 10uM": -1.82}, {"smiles": "COc1ccc(CCNC(=O)CCCn2ncn3c(cc4occc43)c2=O)c(OC)c1", "hERG current change (%, negative = inhibition) at 10uM": -12}, {"smiles": "CC(C)NC(=O)COC(=O)c1cc(=O)[nH]c2ccccc12", "hERG current change (%, negative = inhibition) at 10uM": 8}, {"smiles": "CC1(C)CC(=O)C(CC(=O)Nc2ccc(S(N)(=O)=O)cc2)=C(O)C1", "hERG current change (%, negative = inhibition) at 10uM": -4.32}, {"smiles": "Cc1cc(C)cc(NC(=O)COC(=O)CN=C2NS(=O)(=O)c3ccccc32)c1", "hERG current change (%, negative = inhibition) at 10uM": 15.6}, {"smiles": "Cc1c(C(=O)N2CCCCC2)c(S(=O)(=O)N2CCc3ccccc32)c(C)n1C", "hERG current change (%, negative = inhibition) at 10uM": 7.1}, {"smiles": "Cc1c(C(=O)N2CCCCC2)sc(NC(=O)C23CC4CC(CC(C4)C2)C3)c1C#N", "hERG current change (%, negative = inhibition) at 10uM": 16}, {"smiles": "COc1ccc2ccccc2c1C1CC(=O)N2CN(Cc3ccco3)CSC2=C1C#N", "note": "(stereo not drawn)", "hERG current change (%, negative = inhibition) at 10uM": 16.3}, {"smiles": "Cc1ccc(S(=O)(=O)N(C)CC(=O)OCC(=O)N2CC(=O)Nc3ccccc32)cc1", "hERG current change (%, negative = inhibition) at 10uM": -11.5}, {"smiles": "CC(C)(C)c1cc2ncnc(N3CCCCC3)c2s1", "hERG current change (%, negative = inhibition) at 10uM": -7.25}, {"smiles": "CN(C)C(=O)N1CCN(C(=O)N(C)C)CC1", "hERG current change (%, negative = inhibition) at 10uM": 14.8}, {"smiles": "OCC1CCN(Cc2nc(Cc3ccccc3Cl)no2)CC1", "hERG current change (%, negative = inhibition) at 10uM": 24.4}, {"smiles": "C=CCn1c(SCC(=O)c2ccc(O)c(O)c2)nnc1-c1cccc(C)c1", "hERG current change (%, negative = inhibition) at 10uM": -23.1}, {"smiles": "CCOn1c(=O)c(-c2ccc(Cl)cc2)[n+]([O-])c2ccccc21", "hERG current change (%, negative = inhibition) at 10uM": 16.2}, {"smiles": "COc1ccc(C(=O)C2CCCN(Cc3c[nH]c4ccccc34)C2)c(OC)c1", "note": "(stereo not drawn)", "hERG current change (%, negative = inhibition) at 10uM": -70.8}, {"smiles": "CCc1nnc(NC(=O)C2Cc3ccccc3CN2S(=O)(=O)c2ccc(C)cc2)s1", "note": "(stereo not drawn)", "hERG current change (%, negative = inhibition) at 10uM": 15.6}, {"smiles": "C/C(=N\\NC(=O)c1ccc(CSc2nc(C)cc(C)n2)cc1)c1ccco1", "hERG current change (%, negative = inhibition) at 10uM": -27.9}]}]}
